Some of the results follow.
How the values were obtained:
[1] = system: HSkMC (human skeletal muscle cells); experiment: cytotoxicity call (relative viability < 0.9); settings: 10 µM
[2] = system: HepG2; experiment: cytotoxicity call (relative viability < 0.9); settings: 10 µM
[3] = system: S. aureus RN4220; experiment: growth inhibition call (relative growth <= 0.2); settings: 50 µM

Row | Compound | cytotoxicity call [1] | cytotoxicity call [2] | growth inhibition call [3]
1 | C[C@@H]1CN([C@H](C)CO)C(=O)c2cc(NC(=O)Nc3ccc(C(F)(F)F)cc3)ccc2O[C@@H](C)CCCCO[C@@H]1CN(C)C(=O)Cc1ccccc1 | active | inactive | inactive
2 | CO[C@@H]1[C@H](O)[C@@H](CO)O[C@H]1n1ccc(N)nc1=O | inactive | inactive | inactive
3 | NCCN1CCC[C@H](C(N)=O)C1 | inactive | inactive | inactive
4 | C[C@@H]1CCCCO[C@H](CN(C)C(=O)CCC(F)(F)F)[C@H](C)CN([C@@H](C)CO)C(=O)c2cc(NS(=O)(=O)c3cccs3)ccc2O1 | inactive | inactive | inactive
5 | CS(=O)(=O)c1cc(F)ccc1N | inactive | inactive | inactive
6 | C[C@@H]1CCCCO[C@@H](CN(C)C(=O)C2CCCCC2)[C@H](C)CN([C@@H](C)CO)C(=O)c2cc(NC(=O)c3ccccc3)ccc2O1 | inactive | inactive | inactive
7 | NCC[C@@H]1CC[C@H](NC(=O)NC2CCCCC2)[C@H](CO)O1 | inactive | inactive | inactive
8 | COc1ccc([Si](C)(C)[C@H]2[C@H](CCOC(=O)NCCCCCC(=O)NO)O[C@@]3(C(=O)N(Cc4ccccc4)c4ccc(I)cc43)[C@@H]2C)cc1 | inactive | inactive | inactive
9 | CO[C@@H]1CN(C)C(=O)c2cc(NS(C)(=O)=O)ccc2OC[C@@H](C)N(C(=O)c2ccc3c(c2)OCO3)C[C@@H]1C | inactive | inactive | inactive
10 | Cc1ccc(S(=O)(=O)N(C)C[C@H]2OCCCC[C@H](C)Oc3ccc(NS(C)(=O)=O)cc3C(=O)N([C@H](C)CO)C[C@@H]2C)cc1 | inactive | inactive | inactive
11 | C[C@H]1CN([C@@H](C)CO)C(=O)Cc2cc(NC(=O)Cn3cnnn3)ccc2O[C@@H]1CN(C)Cc1ccc(-c2ccccc2)cc1 | inactive | inactive | inactive
12 | COc1ccc(NC(=O)O[C@H]2[C@H](OC(=O)Nc3ccccc3-c3ccccc3)[C@H](OC(=O)Nc3ccccc3-c3ccccc3)[C@@H](OC)O[C@@H]2CO)cc1 | inactive | inactive | inactive
13 | C[C@@H]1CN([C@@H](C)CO)C(=O)Cc2cc(NC(=O)CCN3CCOCC3)ccc2O[C@@H]1CN(C)Cc1ccc(C(=O)Nc2ccccc2N)cc1 | inactive | inactive | inactive
14 | C#CC1(OC(C)=O)CCC2C3CCC4=CC(=NO)CCC4C3CCC21CC (stereo not drawn) | inactive | active | inactive
15 | C[C@@H]1CN([C@H](C)CO)C(=O)c2c(c3ccccc3n2C)-c2ccccc2CO[C@@H]1CN(C)S(C)(=O)=O | inactive | inactive | inactive
16 | Cc1nc(-c2ccncc2)sc1CN | inactive | inactive | inactive
17 | Cc1noc(C)c1S(=O)(=O)N(C)C[C@H]1OCCCC[C@H](C)Oc2ccc(NC(=O)Nc3ccccc3)cc2C(=O)N([C@H](C)CO)C[C@@H]1C | active | inactive | inactive
18 | C[C@@H]1CCCCO[C@H](CN(C)CC2CCCCC2)[C@H](C)CN([C@@H](C)CO)C(=O)c2cc(NS(=O)(=O)c3ccccc3)ccc2O1 | inactive | inactive | inactive
19 | C[C@H]1CN([C@@H](C)CO)C(=O)c2cc(NC(=O)CCCN(C)C)ccc2O[C@H]1CN(C)C(=O)Nc1ccc(F)cc1 | inactive | inactive | inactive
20 | NNC(=O)[C@@H](O)c1ccccc1 | inactive | inactive | inactive
21 | C[C@H]1CCCCO[C@@H](CN(C)Cc2ccc(C(F)(F)F)cc2)[C@@H](C)CN([C@@H](C)CO)C(=O)c2cc(NC(=O)CCCN(C)C)ccc2O1 | inactive | inactive | inactive
22 | C[C@H](CO)N1C[C@H](C)[C@H](CN(C)C(=O)NC2CCCCC2)Oc2ccc(NC(=O)CCCN(C)C)cc2CC1=O | inactive | inactive | inactive
23 | COCC(=O)Nc1ccc2c(c1)C(=O)N(C)C[C@@H](OC)[C@H](C)CN(C(=O)Cc1ccccn1)[C@H](C)CO2 | inactive | inactive | inactive
24 | C[C@@H]1O[C@@H](O[C@H]2[C@H](Oc3cc(O)c4c(=O)cc(-c5ccc(O)cc5)oc4c3)O[C@H](CO)[C@@H](O)[C@@H]2O)[C@H](O)[C@H](O)[C@H]1O | inactive | inactive | inactive
25 | C[C@H](CO)N1C[C@H](C)[C@@H](CN(C)S(=O)(=O)c2cn(C)cn2)Oc2ncc(C3=CCCCC3)cc2C1=O | inactive | inactive | inactive
26 | O=C(C[C@@H]1CC[C@@H]2[C@H](COC[C@@H](O)CN2C(=O)c2ccncc2)O1)NCc1ccc(-c2ccccc2)cc1 | inactive | inactive | inactive
